These results are taken from the supplement of paper PMC3334620.

In all, about 33,000 sequences were measured (“E-score (-0.5 to 0.5)”: median about -0.043, highest 2% from about 0.37 on). The list shows a part of the results.

This experiment concerns the target T1, Upc2 (UniProt Q12151).
T1 sequence: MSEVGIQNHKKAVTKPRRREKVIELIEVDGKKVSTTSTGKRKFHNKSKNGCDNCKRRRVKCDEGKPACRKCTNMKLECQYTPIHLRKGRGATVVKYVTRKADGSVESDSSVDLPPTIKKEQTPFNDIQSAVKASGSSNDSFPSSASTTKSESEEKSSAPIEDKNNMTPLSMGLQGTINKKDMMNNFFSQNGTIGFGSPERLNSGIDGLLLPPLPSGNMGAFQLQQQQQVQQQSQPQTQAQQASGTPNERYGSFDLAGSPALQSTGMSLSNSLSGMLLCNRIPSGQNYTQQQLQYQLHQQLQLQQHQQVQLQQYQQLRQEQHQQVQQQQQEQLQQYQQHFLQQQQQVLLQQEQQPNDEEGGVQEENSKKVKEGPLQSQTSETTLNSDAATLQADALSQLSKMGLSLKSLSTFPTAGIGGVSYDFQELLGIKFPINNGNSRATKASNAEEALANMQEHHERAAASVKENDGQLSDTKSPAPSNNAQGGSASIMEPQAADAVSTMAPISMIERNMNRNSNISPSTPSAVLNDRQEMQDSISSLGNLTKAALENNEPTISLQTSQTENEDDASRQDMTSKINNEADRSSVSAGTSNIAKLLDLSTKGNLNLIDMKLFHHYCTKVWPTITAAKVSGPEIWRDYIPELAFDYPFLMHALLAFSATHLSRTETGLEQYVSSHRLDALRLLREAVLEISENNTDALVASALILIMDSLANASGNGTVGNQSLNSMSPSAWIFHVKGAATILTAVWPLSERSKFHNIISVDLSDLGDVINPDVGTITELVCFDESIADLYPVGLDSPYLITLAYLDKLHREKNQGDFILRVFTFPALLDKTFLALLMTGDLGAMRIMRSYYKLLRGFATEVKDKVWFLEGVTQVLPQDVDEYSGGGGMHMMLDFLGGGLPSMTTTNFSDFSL
Briefly: PBM E-score (8-mer binding enrichment) (E-score (-0.5 to 0.5)); higher = stronger / more preferred TF binding; most listed sequences are background and not binding sites. Conditions: protein concentration: 200 nM; construct: GST-full length. In a few lines:
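Yeast transcription factors, full-length or as DNA-binding domains, were expressed with a GST tag using PURExpress in vitro transcription/translation. At about 100-200 nM they were applied to universal all-10-mer Agilent arrays, double-stranded by primer extension on fresh or once-stripped slides. Fluorescent anti-GST detected bound protein, and masliner normalised the scans. E-scores for ungapped eight-base words, pooled with reverse complements, came from the Universal PBM Analysis Suite.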
In the case of ACCTCGGC, the “PBM E-score” value was determined as 0.0177.
With ACAGTGCC the figure was -0.101; with TCCTCGAA, 0.0179; with GAAAATTC, 0.0172.
Under AACGGACA stands 0.249; under CCTAATGC, -0.217; under ACGGAGCC, -0.0783.
Under AGGCGTAC stands 0.238.
Consider ACTGACTG, for which the “PBM E-score” value was -0.0255.
Turning to TAATACTA, the “PBM E-score” value worked out at 0.105.
With AATTTTTC the figure was 0.038; with CGCACTCC, -0.0478; with ACCCGAAT, 0.178.
With CTGATAAC the figure was 0.0192; with ATCTAAAA, -0.0555; with AATTCACT, -0.234.
In the case of AGCGCGCG, the “PBM E-score” value was determined as 0.0572.
AAACCTCG: the “PBM E-score” value is 0.0616.
With ACAGTCCT the figure was -0.319; with ATCCTCAC, 0.0717; with ATTGAAGA, -0.226.
Take ATTATGCC: the “PBM E-score” value is -0.0194.
Under CAGACATG stands -0.0207; under AGCTACCC, -0.265.
Turning to CGACCGTC, the “PBM E-score” value was -0.0557.
Under ACAACCGA stands 0.167; under ATAGGAGG, -0.26; under TGGAATAA, 0.0285.
For AGTGAGAA, the “PBM E-score” value was -0.0477.
Take GCTCGCTA: the “PBM E-score” value was 0.196.
For AGTACCAT, the “PBM E-score” value stood at 0.0365.
As for TAGCTTGA, the “PBM E-score” value is -0.0392.
Turning to CCCTCGCG, the “PBM E-score” value was 0.147.
Under TAGTGCGA stands -0.0997; under GACGAAGA, -0.0247.
For ATAATTGA, the “PBM E-score” value turned out to be 0.0764.
Under CGTGTAAC stands 0.0107; under ATCCCTCC, -0.158; under CGGTATCC, 0.00595.
With TTACCCAA the figure was -0.0792.
For the sequence ACCACACT, the “PBM E-score” value was -0.109.
As to CTGAGGGC, the “PBM E-score” value is -0.0785.
With ATAAATAT, the “PBM E-score” value was found to be 0.0205.
In the case of CGGTCGCC, the “PBM E-score” value worked out at 0.126.
Under CTACACCC stands -0.296; under GCGGCCAC, -0.267.
Under TCGCACCA stands 0.15.
In the case of GAGATTAC, the “PBM E-score” value was -0.0768.
Turning to CGCACGGA, the “PBM E-score” value amounted to 0.00832.
With CACTTACC the figure was 0.0944; with CGGGGAAA, 0.0981; with TGCCATAA, -0.142.
For the sequence GAAGTAAC, the “PBM E-score” value is -0.0181.
Turning to CGATGTTA, the “PBM E-score” value was 0.0277.
Take CCTGTGCG: the “PBM E-score” value turned out to be 0.0706.
Take CAACTTAA: the “PBM E-score” value amounted to 0.0267.
With AGTAGAAA the figure was 0.185; with TACCCTAA, 0.0855; with GTGCAACA, -0.249.
With GTGTGATA the figure was 0.135.
As for AGGTTTAT, the “PBM E-score” value was 0.133.
With AATTCACC the figure was -0.019; with GATATCCC, -0.0348.
Take AAGATGGC: the “PBM E-score” value was -0.0955.
ATGATCGA: the “PBM E-score” value was determined as 0.12.
For the sequence ACGGATCC, the “PBM E-score” value came to 0.141.
With CAATGTGC the figure was 0.131.
Under GATATGCA stands -0.0442; under AGGGTACC, -0.241.
Under GCGACATA stands 0.164.
On to AAGGAGCG, for which the “PBM E-score” value was determined as 0.102.
With GACGTTAC the figure was 0.18.
In the case of GTCTGGAA, the “PBM E-score” value is -0.122.
With CCATGCTA the figure was -0.231.
As to ATCTGTCG, the “PBM E-score” value came to 0.185.
As to ATCCCTTA, the “PBM E-score” value is -0.0554.
Under TCTTCAAA stands -0.183.
With GCATAGTA the figure was 0.109.
In the case of AAGACGTG, the “PBM E-score” value was -0.182.
With AGATTGAT the figure was -0.202; with GCCGTCTA, -0.0991; with CATGTTGA, -0.02.
Under CTCAGTTC stands -0.108.
With ATAATGAG, the “PBM E-score” value was found to be 0.105.
As to CACACCTG, the “PBM E-score” value was -0.188.
With GCCTACCA, the “PBM E-score” value is -0.22.
With AGGCACGG the figure was -0.188.
With AAACTGAT the figure was -0.0822; with GTGCATGA, -0.0886; with ACCATAGA, -0.18.
With CTCATCGC the figure was -0.0145; with CGTCGATC, -0.0198.
As for CTAACAAA, the “PBM E-score” value is -0.108.
Under TACACACA stands 0.103.
On to AACCAGTA, for which the “PBM E-score” value amounted to 0.0766.
With AAGTCTTA, the “PBM E-score” value was -0.133.
Under GTAACAAC stands 0.0557; under GCTAACAA, 0.0294; under GGCGTGCA, -0.286.
With ACCAGCAC the figure was -0.212.
Under CCAAGCCG stands -0.242.
As to GGCGATGA, the “PBM E-score” value was -0.0714.
For the sequence AGAGCTCT, the “PBM E-score” value is -0.248.
Under AGCCCGAG stands -0.137; under CGGCCAGC, -0.175; under TATGGCCA, -0.134.
Under AGTCGACA stands 0.0616.
As for CTTAACTC, the “PBM E-score” value is -0.108.
With CCTCGAAA the figure was 0.037.
